Results reported in paper PMC4336329 (PLoS ONE, 2015).
Screen size: about 310,000 compounds; about 14,000 (4.5%) showed an effect of 50% or more. Effects have a minus sign here. Some of the results follow.

Target: human ether-à-go-go-related gene (hERG) potassium channel (human, UniProt Q12809)
Test: primary screen, population patch clamp on CHO cells stably expressing hERG
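Note: peak tail current of the secondary pulse compared with the same well before compound.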

Chain of human ether-à-go-go-related gene (hERG) potassium channel (Q12809 whole entry, looked up): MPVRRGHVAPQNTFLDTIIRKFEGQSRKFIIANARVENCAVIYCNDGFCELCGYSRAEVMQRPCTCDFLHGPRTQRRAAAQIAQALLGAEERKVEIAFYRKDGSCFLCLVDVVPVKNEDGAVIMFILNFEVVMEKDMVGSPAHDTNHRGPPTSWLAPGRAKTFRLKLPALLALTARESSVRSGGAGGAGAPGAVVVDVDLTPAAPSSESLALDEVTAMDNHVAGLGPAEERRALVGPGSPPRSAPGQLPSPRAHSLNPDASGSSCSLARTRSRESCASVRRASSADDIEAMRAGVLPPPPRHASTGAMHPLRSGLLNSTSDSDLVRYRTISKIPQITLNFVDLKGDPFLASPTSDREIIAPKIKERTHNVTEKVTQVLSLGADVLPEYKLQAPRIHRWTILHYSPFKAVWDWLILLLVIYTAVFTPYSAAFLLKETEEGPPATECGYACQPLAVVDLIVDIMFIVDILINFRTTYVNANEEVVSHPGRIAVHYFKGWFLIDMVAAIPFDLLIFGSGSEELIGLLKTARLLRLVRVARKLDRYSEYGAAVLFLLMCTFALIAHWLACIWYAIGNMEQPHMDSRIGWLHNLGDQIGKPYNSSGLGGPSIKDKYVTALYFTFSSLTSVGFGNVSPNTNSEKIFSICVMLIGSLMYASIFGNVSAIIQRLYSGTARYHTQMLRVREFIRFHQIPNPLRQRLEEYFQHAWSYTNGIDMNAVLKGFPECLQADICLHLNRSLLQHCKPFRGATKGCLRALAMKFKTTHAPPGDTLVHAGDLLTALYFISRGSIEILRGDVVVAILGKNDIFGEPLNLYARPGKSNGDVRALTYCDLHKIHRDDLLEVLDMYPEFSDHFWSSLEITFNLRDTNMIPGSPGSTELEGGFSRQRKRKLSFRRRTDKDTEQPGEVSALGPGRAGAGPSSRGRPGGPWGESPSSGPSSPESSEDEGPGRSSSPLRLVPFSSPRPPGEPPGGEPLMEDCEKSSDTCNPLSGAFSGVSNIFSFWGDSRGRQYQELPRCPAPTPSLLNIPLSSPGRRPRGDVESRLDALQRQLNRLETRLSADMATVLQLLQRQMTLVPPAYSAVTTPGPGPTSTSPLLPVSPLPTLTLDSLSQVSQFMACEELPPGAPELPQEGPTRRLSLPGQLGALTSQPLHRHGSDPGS

**Q.** Which “hERG current change (%, negative = inhibition) at 10uM” value does the source give for `Cc1c(OCC(=O)NCC(O)c2ccccc2)ccc2c3c(c(=O)oc12)CCC3` (stereo not shown) here?
**A.** Its value is -8.23%.

**Q.** Which “hERG current change (%, negative = inhibition) at 10uM” value does the source give for `COc1ccc(-c2csc(N3C(=O)C4C5c6ccccc6C(c6ccccc65)C4C3=O)n2)cc1` (stereo not shown) here?
**A.** The value was 9.58%.

**Q.** How did the “hERG current change (%, negative = inhibition) at 10uM” value turn out when `N#Cc1ccccc1OCc1nnc(-c2ccccc2Br)o1` was run?
**A.** The value was 14.1%.

**Q.** For `CN(C)C(CNC(=O)C1CCN(S(=O)(=O)c2ccc(Cl)cc2)CC1)c1ccccc1` (stereo not shown), which “hERG current change (%, negative = inhibition) at 10uM” value is on record?
**A.** The value was -27.2%.

**Q.** For `CCSc1ccccc1C(=O)N1CCCC1`, which “hERG current change (%, negative = inhibition) at 10uM” value is on record?
**A.** The value was -5.81%.

**Q.** With `COC(=O)C1C(=O)C2=C(CC1C)NC(=O)CC2c1ccccc1` (stereo not shown) as the compound, how does the “hERG current change (%, negative = inhibition) at 10uM” value read?
**A.** The value was -10.2%.

**Q.** For `COc1cccc(-c2nc(CS(=O)CC(=O)NCCCOC(C)C)c(C)o2)c1` (stereo not shown), which “hERG current change (%, negative = inhibition) at 10uM” value is on record?
**A.** The value was -0.119%.

**Q.** For `Cc1cc(C)n(CC(=O)N/N=C/c2ccc([N+](=O)[O-])s2)n1`, which “hERG current change (%, negative = inhibition) at 10uM” value is on record?
**A.** The value was 15.6%.

**Q.** With `Cc1ccc(-c2nn(C)c(=O)c3ccccc23)cc1CNC(=O)/C=C/c1ccccc1` as the compound, how does the “hERG current change (%, negative = inhibition) at 10uM” value read?
**A.** Its value is -13.9%.

**Q.** Which “hERG current change (%, negative = inhibition) at 10uM” value does the source give for `CNC(=S)NCCc1cc2c(OC)ccc(OC)c2[nH]c1=O` here?
**A.** The value was 12.1%.

**Q.** For `CC(C)Oc1cccc(C(=O)C2CCCN(Cc3ccon3)C2)c1` (stereo not shown), which “hERG current change (%, negative = inhibition) at 10uM” value is on record?
**A.** Its value is -3.37%.

**Q.** `Cc1cc(C)cc(OCCCOc2cccc3cccnc23)c1` was tested. Which “hERG current change (%, negative = inhibition) at 10uM” value did it give?
**A.** Its value is -8.87%.

**Q.** Which “hERG current change (%, negative = inhibition) at 10uM” value does the source give for `CCOc1cc(N2CCOCC2)c(OCC)cc1NC(=O)C(C)C` here?
**A.** The value was -0.139%.

**Q.** For `CC(C)(C)NC(=O)CN1CCCN(C(=O)COc2ccc(Cl)c3ccccc23)CC1`, which “hERG current change (%, negative = inhibition) at 10uM” value is on record?
**A.** The value was -38.9%.

**Q.** How did the “hERG current change (%, negative = inhibition) at 10uM” value turn out when `CC1=C(C)CC(C(=O)N2CCN(Cc3ccccc3)CC2)C(C(=O)O)C1` (stereo not shown) was run?
**A.** The value was 5.81%.

**Q.** Which “hERG current change (%, negative = inhibition) at 10uM” value does the source give for `CC(C)OC(=O)CSc1nc2ncccc2[nH]1` here?
**A.** Its value is 7.64%.

**Q.** How did the “hERG current change (%, negative = inhibition) at 10uM” value turn out when `COc1ccc(Cl)cc1C(=O)N1CCN=C1SC` was run?
**A.** Its value is 21.3%.

**Q.** How did the “hERG current change (%, negative = inhibition) at 10uM” value turn out when `O=c1c(-c2ccc(O)cc2)coc2cc(OC3OC(CO)C(O)C(O)C3O)ccc12` (stereo not shown) was run?
**A.** Its value is 30.8%.

**Q.** How did the “hERG current change (%, negative = inhibition) at 10uM” value turn out when `COc1ccc(CN(C)C(=O)Cn2ccsc2=N)cc1OC.Cl` was run?
**A.** The value was 13.7%.

**Q.** With `S=c1[nH]nc(COc2ccccc2)n1/N=C/c1ccco1` as the compound, how does the “hERG current change (%, negative = inhibition) at 10uM” value read?
**A.** Its value is 12.8%.

**Q.** Which “hERG current change (%, negative = inhibition) at 10uM” value does the source give for `CS(=O)(=O)N(CC(=O)NCc1ccncc1)c1cc(Cl)ccc1Cl` here?
**A.** The value was 13.4%.

**Q.** With `CC(c1nnc(SCC(=O)c2c(N)n(C)c(=O)n(C)c2=O)n1-c1ccc(Cl)cc1)N(C)C` (stereo not shown) as the compound, how does the “hERG current change (%, negative = inhibition) at 10uM” value read?
**A.** The value was 5.35%.

**Q.** `O=C(O)C1CC=CCC1C(=O)NCCc1cccc(Cl)c1` (stereo not shown) was tested. Which “hERG current change (%, negative = inhibition) at 10uM” value did it give?
**A.** The value was 4.9%.

**Q.** How did the “hERG current change (%, negative = inhibition) at 10uM” value turn out when `CCOc1nc(NCc2ccco2)nc(Nc2ccccc2F)n1` was run?
**A.** The value was 5.54%.

**Q.** How did the “hERG current change (%, negative = inhibition) at 10uM” value turn out when `CCc1ncc(CN2CCCCC2C(=O)Nc2ccc(Oc3ccccc3)nc2)cn1` (stereo not shown) was run?
**A.** The value was -14.5%.
